In the supplement of paper PMC11417369:
Some of the results follow.

System: PfSIP2 AP2 domain 1 (GST-tagged)
Test: gcPBM binding intensity (ln(normalized median fluorescence intensity)); higher = stronger DNA binding
Summary of the method: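 The binding buffer was 1× PBS containing 1% milk, 0.2 mg/ml BSA, 0.5% salmon testes DNA and 0.03% Triton X-100. In it, GST-tagged P. falciparum DNA-binding domains expressed in E. coli were applied for 1 h to an Agilent 4 × 180k array of primer-extended double-stranded 36-bp intergenic genomic probes plus negative controls. Binding intensity, read with Alexa488 anti-GST antibody and a 488 nm scan, is the highest Masliner-normalised natural-log median intensity across replicate spots of either probe orientation.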

Row | Sequence | gcPBM binding intensity (ln)
1 | AACTTTAAACCCTGAACACACACAAATACACCCAAA [CACACA_site7971] | 7.44
2 | TATATATATATATATATATATATATATGTATATATG [XGTACX_negctrl_site242] | 9.63
3 | ATAATCCACAAGCACACACACACACCCATATATATA [CACACA_site1268] | 7.51
4 | CACCAAAATATATGTACATATGATAAATGTGAATAT [GTGCAC_negctrl_site83] | 7.24
5 | AAAATTATCGTTATATGTACGCATCTTAATACGTAT [XGTACX_site4063] | 7.08
6 | GTCTATATATTTTAGGTGCAACGTAAATGTAAAAAT | 10.7
7 | TTTTACAATATTTTGTGTACTTATATTATGAGCTTA [XGTACX_site3287] | 7.04
8 | TAACTTTTTTTTTTTTTTTTTTAACTTTTATGTAAT [GTGCAC_negctrl_site156] | 6.84
9 | ATTTCCTTGAATGTTGCATGCTGTATTTTAATTAAA [TGCATGCA_site280] | 6.85
10 | AAAAAAAGGAAATTTACACACACATATAATATACAT [CACACA_site3297] | 6.86
11 | AAAAAAAAAAAGTGCACACATAAAAATATGATCTAA [CACACA_site572] | 11.5
12 | TAAATTTTTCTAAGTGCATGTTAATTTTTCAATTTA [TGCATGCA_site906] | 9.5
13 | TAGATTATTATACTAGTGCAAATTATTTAAGAAAAA | 8.09
14 | ATATTATTTATAAAAGTGCAAAAATCACTTCTTTTA [GTGCAC_site9656] | 8.04
15 | TTTAAAAAGTTATGAAGTACATATATATATATATAT [XGTACX_site2188] | 9.69
16 | TAATATCGTATATGAGTGCAATATTTTAGATTTTGA | 7.91
17 | TGCACGCACAGACACACACACAACTAAAAAATAATG [CACACA_site7250] | 7.33
18 | AAAAAAAGGTAAAATTGTACATACGCACAAAAATAT [XGTACX_site2887] | 7.22
19 | AATAAATTCATGAATTGTACGTAATGATAACATGAA [XGTACX_site2591] | 7.11

Row | Sequence | gcPBM binding intensity (ln)
20 | ATTTTCTTTTTTAAACGTACACATATTAAATATATA [XGTACX_site7773] | 7.53
21 | TTTTTATTCCAGTATTCACACACGAATAACCACATA [CACACA_site1897] | 6.99
22 | TTATAACTTTTCACAAGTACATATATATATGTATAA [XGTACX_site2306] | 7.18
23 | ATATATATGTTTTTATGTACATATTTTTCTCCTTCA [XGTACX_site5899] | 7.17
24 | TTTGGAAAGCGTGATTTTTGACAAACACAAAAAAAA [CACACA_negctrl_site651] | 6.81
25 | ATTATTTTATGAGACATAAAAAAAAAAAAAAAAAAA [CACACA_negctrl_site1067] | 7.41
26 | AGATGAGAGATATATACACACAATAATACCTATTTA [CACACA_site6542] | 6.89
27 | TACAATATTTCGAGCTTGCACTTTTATTAAGTAAAT | 7.62
28 | TATCTGTATTTGTATACACACAAATGTATTTATTTA [CACACA_site4830] | 7.03
29 | TATACAGACAGACACACACACATATATAAATATGTA [CACACA_site6912] | 7.11
30 | ATTATTATTTTTAACTGTACATAGATATAGATATCC [XGTACX_site8714] | 6.96
31 | TAAGAAAAATATATATGTACACATATATATATATAT [XGTACX_site8542] | 9.09
32 | TGTATGTTATATACAACACACAAAAAAAAACAAGTT [CACACA_site301] | 6.87
33 | AACTTTTATACGGATACACACAAAAAAAAATAAAAA [CACACA_site6547] | 7.31
34 | ATGTGTATACTAAGAACACACAAGTTACTTGGTGTT [CACACA_site6864] | 6.77
35 | TATTTAAAAGATGAAAGTACACATTTAATTACATTT [XGTACX_site3781] | 6.65
36 | TATATTTAACATACTTTTTTTTTTTTTTTTTTTTTT [CACACA_negctrl_site938] | 8.56
37 | TAATTAGCATAATACACATGCATACATTTATATATA [TGCATGCA_site542] | 7.01
38 | TACATATATCTATGTGTGCACTTATTTCCGGACAAA | 10.2

Row | Sequence | gcPBM binding intensity (ln)
39 | AAAAAAAAAAAACATACACACAAGAACAAAATATGA [CACACA_site3002] | 6.98
40 | AGTCTTTTACATTGCACACACATTTCTTTCCTTTTG [CACACA_site2988] | 7.41
41 | ATTAAATGATTCATATGTACATAAATAAATAAATAT [XGTACX_site2249] | 7.23
42 | TTTCTTTTTAAAGTGTATTAAAATTGAATAAAAAGA [XGTACX_negctrl_site408] | 7.21
43 | TATTAATATTTACACACATGCGCACACATAAATAAA [TGCATGCA_site609] | 9.31
44 | TTTTTTTTTTTTGTCACACACCTTCATAAGAAAAAA [CACACA_site4779] | 7.1
45 | TAAATCCGCAGGCACACACACATATTAAGAAAAAAA [CACACA_site6061] | 6.97
46 | GTACAGATATTGTACATACACACCTATATAAATATC [CACACA_site5739] | 7.04
47 | ATGAAAAAACATAATTGTACAAAAGTTGGATTCGAT [XGTACX_site7732] | 7.49
48 | ATCATCACATAAGAAAATAGATAAAAAAAAAAAAAT [XGTACX_negctrl_site589] | 6.82
49 | TGGGAACAATATATTTGTACTTAAATAAATAAAAAA [XGTACX_site6762] | 7.02
50 | GAACAAAATGATAGAAGTACAAATATTTATTTTGTT [XGTACX_site7146] | 6.9
51 | AAAGAGAAACAAAATTGTACATTATATTGTAGACGT [XGTACX_site976] | 7.06
52 | TATATTTATAAGTGTACACATTATATAAATCCCTAT [CACACA_site6122] | 7.1
53 | ATAGGTGAATACTAATATAAATTCAAGAGGGAAAAG [CACACA_negctrl_site720] | 6.89
54 | TTTACATTAAATCACGCACACAAAAAAAAAAAAAAA [CACACA_site2418] | 7.3
55 | TATATATATATAATGTGTACATACTAAATAGAGGAC [XGTACX_site4153] | 9.23
56 | GAAATGTATAAATCCATACACACATAAATTTTAATA [CACACA_site2364] | 6.96
57 | TAAATATAAAAATGCACACACACAAAAAAAAAAAAA [CACACA_site895] | 7.44
